# Laboratory results reported in PubChem BioAssay AID2546 (National Center for Advancing Translational Sciences (NCATS), 2010).
# About 11,000 (3.5%) of roughly 310,000 compounds were called active. Inconclusive means that the source gave no clear call. Such entries were picked first, then a sample of the others. Calls follow the shape of the dose curve; as a rule, active = well fitted inhibition curve with a large enough effect; inconclusive = small, poorly fitted or top-dose-only effect, or effect the other way; inactive = flat fitted curve, though single readings scatter. No potency is given beside an inconclusive call; the fits are too rough.
# Experiment: VP16 counterscreen qHTS for inhibitors of ROR gamma transcriptional activity;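 also: Gal4-VP16 expression switched on by copper sulfate through the metallothionein promoter; nearly all actives have a fitted effect of over 50% in size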
# Details: Drosophila S2 Gal4-VP16 UAS-luciferase, luminescence, 20 h; activity, negative = inhibition: at 53.6 µM (top of the series)
# % is scaled to controls: 0 for no effect and ±100 for the full control effect; potency is read from the fitted curve at half-maximal effect; tags tell the direction and shape of the fitted curve.
Structure (SMILES),Potency,"activity, negative = inhibition"
Cn1c2ccccc2c2cc(/C=N/NC(=O)c3ccccc3F)ccc21,"inconclusive [inhibitor, single point]",–
Cn1c(=O)[nH]c(=O)c2c1nc(N1CCCCC1)n2CCSc1nc2ccccc2o1,–,inactive: -7.65%
Cc1sc2nc(C(C)C)nc(SCC(=O)NC3CC3)c2c1C,"inconclusive [activator, single point]",–
NS(=O)(=O)c1ccc(NC(=S)NC(=O)C2CCCCC2)cc1,–,inactive: 5.9%
CCc1nn(C(CC)C(=O)NCc2cccc(OC)c2)c(=O)c2cc3occc3n12 (stereo unspecified),–,inactive: 17.7%
CCOC(=O)c1ccc(CNC(=O)c2cc(C(C)(C)C)oc2C)o1,"inconclusive [inhibitor, single point]",–
Nc1nc(NCCO)nc(N2CCCCCC2)c1[N+](=O)[O-],–,inactive: 1.5%
COc1cccc(/C=C2\SC(=S)N(CCCC(=O)N(CCO)c3ccccc3)C2=O)c1,active: 2.51 µM,–
Clc1ccc(CCNc2ncnc3c2nnn3Cc2ccccc2)cc1,"inconclusive [inhibitor, single point]",–
Cn1cnnc1Sc1ccc(C(=O)NCCC23CC4CC(CC(C4)C2)C3)cc1[N+](=O)[O-],–,inactive: -11.5%
O=C(COC(=O)c1ccc([N+](=O)[O-])o1)Nc1nc2ccccc2s1,–,inactive: -13.9%
O=C(NC(=S)NCc1cccnc1)c1ccc([N+](=O)[O-])cc1,"inconclusive [inhibitor, single point]",–
Cc1nc(CSc2ccc(Br)cc2)cs1,–,inactive: 5.3%
CC(=O)Nc1ccc(N/C=C/C(=O)c2ccco2)cc1,"inconclusive [inhibitor, single point]",–
COc1ccc2c(c1)CC/C2=N\OC(=O)c1cccc(C)c1,"inconclusive [inhibitor, single point]",–
Cc1ccc(NC(=O)c2cc(-c3cccc(O)c3)on2)cc1C,"inconclusive [inhibitor, single point]",–
Nc1c(S(=O)(=O)O)cc(Nc2ccc(Cl)cc2)c2c1C(=O)c1ccccc1C2=O,"inconclusive [inhibitor, single point]",–
COc1cccc(N=C2SC(C(=O)Nc3ccccc3F)CC(=O)N2C)c1 (stereo unspecified),"inconclusive [inhibitor, single point]",–
COc1ccc(CCNC(=O)c2ccc3c(c2)N(Cc2ccc(F)cc2)CCS3)c(OC)c1,–,inactive: -4%
Cc1cccc(CN2CCC(CNC(=O)Cn3ncc4c([nH]c5ccccc54)c3=O)CC2)c1,–,inactive: -6.12%
CC1(C)CC(=O)C(C=Nc2ccc(N)cc2)=C(O)C1,"inconclusive [activator, single point]",–
CCCCCCc1nc2ccccc2c(=O)n1N,"inconclusive [inhibitor, single point]",–
Cc1ccc(-c2nn(CC(=O)N3CCOCC3)c(=O)c3ccccc23)cc1S(=O)(=O)N(C)C,–,inactive: -4.89%
CCOC(=O)/C=C/C(=O)OCC(=O)Nc1ccc(OC)c(Cl)c1,–,inactive: -1.01%
COc1cc(C(=O)N/N=C/c2cn(Cc3ccccc3)c3ccccc23)ccc1O,"inconclusive [inhibitor, single point]",–
O=C(Nc1ccc(F)cc1)NC1CCCc2ccccc21 (stereo unspecified),"inconclusive [activator, single point]",–

Structure (SMILES),Potency,"activity, negative = inhibition"
Cc1ccc(S(=O)(=O)CCC(=O)NCCc2ccc(Cl)cc2)cc1,–,inactive: 0.714%
O=C(NNC1=NCCN1Cc1ccccc1)c1cccc(C(F)(F)F)c1,active: 11.2 µM,–
O=C(CCN1CCN(c2ccccc2)CC1)c1ccc(Cl)cc1,"inconclusive [inhibitor, single point]",–
CCN1/C(=C(\O)c2ccccc2)C(=O)c2ccccc2S1(=O)=O,"inconclusive [inhibitor, single point]",–
Cc1ccc(NC(=S)Nc2ccc(S(=O)(=O)Nc3ncccn3)cc2)cc1Cl,"inconclusive [inhibitor, single point]",–
COc1ccc2ccccc2c1/C=N/NC(=S)NCCN1CCOCC1,active: 4.47 µM,–
Fc1cccc(/C=N/Nc2ccc3ccccc3n2)c1,"inconclusive [inhibitor, single point]",–
O=c1cnc2cnc(Nc3ccccc3)nc2n1Cc1cccs1,"inconclusive [inhibitor, single point]",–
O=C(Nc1cccc(S(=O)(=O)NCc2ccco2)c1)c1cc(-c2ccc(F)cc2)nc2ccccc12,–,inactive: 1.31%
Cc1sc2ncnc(NCCCO)c2c1C,–,inactive: -0.387%
COCCOc1ccc(C(F)(F)F)cc1NC(=O)COC(=O)C12CC3CC(CC(O)(C3)C1)C2,–,inactive: 29.3%
O=C(NNC(=O)c1ccc(-c2ccccc2)cc1)c1ccccc1,"inconclusive [activator, partial curve]",–
CC(=O)Nc1cnc(NC(=O)c2cccc(F)c2)cc1C,"inconclusive [inhibitor, partial curve, poor fit]",–
O=C(CCl)N(c1ccc(Cl)cc1)c1c[nH]c2ccccc12,active: 10 µM,–
O=S(=O)(Nc1nc2ccccc2[nH]1)c1ccc(Cl)cc1,–,inactive: 2.66%
CC(=O)c1ccccc1OCC(O)CN1CCN(C(c2ccccc2)c2ccccc2)CC1 (stereo unspecified),"inconclusive [inhibitor, full curve, poor fit]",–
O=C(Nc1ccc(C(=O)NCc2ccc(F)cc2)cc1)C1=CSCCO1,"inconclusive [inhibitor, full curve]",–
COc1cc(NC(=S)NCc2ccco2)c(OC)cc1Cl,"inconclusive [inhibitor, single point]",–
Oc1ccc(-c2nc3ccccc3s2)c(O)c1,"inconclusive [inhibitor, single point]",–
O=C(c1cc(-c2ccccc2O)on1)N1CCc2ccccc2C1,"inconclusive [inhibitor, single point]",–
CC[C@@]1(c2ccccc2)C(=O)N(C(=O)OC)N1C(=O)OC,"inconclusive [inhibitor, single point]",–
S=C(Nc1ccc2nccnc2c1)N1CCOCC1,"inconclusive [activator, single point]",–
Oc1ccc(/C=N/NC(=S)NC2CC3CCC2C3)cc1 (stereo unspecified),active: 11.2 µM,–
Cc1ccc(-c2nc(CS(=O)CC(=O)NC(C)CCc3ccccc3)c(C)o2)cc1 (stereo unspecified),"inconclusive [inhibitor, single point]",–
Cc1cccc(-n2cc(CN3CCN(Cc4nccn4C)CC3)c(-c3cccc(F)c3)n2)c1,"inconclusive [inhibitor, partial curve, poor fit]",–
O=C(NC(Nc1ncc(S(=O)(=O)c2ccc([N+](=O)[O-])cc2)s1)(C(F)(F)F)C(F)(F)F)c1ccc(Cl)cc1,active: 11.2 µM,–

Structure (SMILES),Potency,"activity, negative = inhibition"
N#CC(C#N)=Cc1ccccc1OCc1ccccc1,"inconclusive [inhibitor, partial curve]",–
N#C/C(=C\c1c(N2CCOCC2)nc2ccccn2c1=O)C(=O)NC1CCS(=O)(=O)C1 (stereo unspecified),–,inactive: -1.09%
CCc1nnc(NC(=O)CSc2nc3cccnc3n2Cc2ccccc2)s1,"inconclusive [inhibitor, single point]",–
C/C(N)=C(/C#N)C(=O)CSc1nc2ccccc2c(=O)n1Cc1ccc(C)cc1,active: 3.98 µM,–
CCC(=O)Nc1ccc2nc(C3CC3)n(Cc3ccc(C(C)(C)C)cc3)c(=O)c2c1,–,inactive: -23.6%
O=c1c(S(=O)(=O)c2ccc(Cl)cc2)cn(Cc2cccc(F)c2)c2ccc(F)cc12,–,inactive: -1.32%
CC(=O)Nc1ccc(N=NC2C(=O)N(C(N)=S)N=C2C)cc1 (stereo unspecified),active: 8.91 µM,–
COc1ccc(-n2c(=S)[nH]c3cc(C(=O)Nc4ccccc4OC)ccc3c2=O)cc1,"inconclusive [inhibitor, single point]",–
CCOc1ccccc1CNc1nnnn1C,–,inactive: -2.03%
C=CCNC(=O)c1onc(CSc2ccc(C(C)C)cc2)c1C(=O)O,"inconclusive [inhibitor, single point]",–
COc1ccc(/C=N/c2c(-c3ccc(OC)cc3)nc3n2CCS3)cc1,–,inactive: -12.6%
COc1ccc(CNC(=O)COC(=O)CC2CC3CCC2C3)cc1OC (stereo unspecified),–,inactive: -16.8%
C/C(=N\NC(=S)Nc1cccc(C)c1)c1cccc(N)c1,active: 3.16 µM,–
C=CCOc1c(Br)cc(CNc2nccs2)cc1OC,active: 17.8 µM,–
S=C(NCCc1ccccn1)Nc1ccccc1,"inconclusive [inhibitor, single point]",–
N#Cc1ccc(-c2csc(NC3=NCCCCC3)n2)cc1,"inconclusive [activator, single point]",–
CCc1cccc(C)c1NC(=S)N(Cc1cccnc1)Cc1ccco1,"inconclusive [inhibitor, single point]",–
O=C(Nc1ccc2c(c1)OCCO2)Nc1ccc2c(c1)OCO2,"inconclusive [inhibitor, partial curve, poor fit]",–
Cc1cccc(C)c1NS(=O)(=O)c1cc2c3c(c1)CC(=O)N3CCC2,"inconclusive [activator, single point]",–
CC(C)c1c(C(=O)N/N=C/C=C/c2ccccc2)nnn1-c1nonc1N,active: 5.62 µM,–
Nn1c(Cc2cccc3ccccc23)nnc1SCC(=O)NC1CCS(=O)(=O)C1 (stereo unspecified),–,inactive: -5.93%
CCOc1ccccc1N1CCN(C(=S)NC(=O)C23CC4CC(CC(C4)C2)C3)CC1,active: 3.55 µM,–
Fc1ccc2nc(Nc3nc4c(s3)CCCC4)sc2c1,"inconclusive [inhibitor, single point]",–
Cc1ccc(OCc2ccc(C(=O)Nc3nc4ccccc4n3Cc3ccccc3)o2)c([N+](=O)[O-])c1,active: 0.316 µM,–
